# Values marked as one replicate rest on one cluster of the flow cell; about a third of the high ones do not repeat.
# Test system: ATP
# Experiment: switch fluorescence ratio, 500 uM ATP over buffer (Cy3 cluster intensity, sum of 5 cycles each) (fold (ratio)); higher = stronger signal-on switching upon ATP binding; sequences stand for … in TCGTCGGCAGCGTCAGATGTGTATAAGAGACAGTTTTTTTTTTTTTTTTTTTTTTTTT…TC
# Details: aptamer strand: ATP DNA aptamer (quencher-CACCTGGGGGAGTATTGCGGAGGAAGG + anchor), 100 nM annealed; ATP concentration: 500 uM; one replicate
# In short: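 Cy3-labelled switching-strand clusters on a modified Illumina MiSeq flow-cell were annealed to 100 nM quencher-labelled ATP aptamer and imaged first in selection buffer, then after 15 min with 500 uM ATP at 22 °C. NaOH stripping and re-annealing separated each of five buffer/ATP cycles, and clusters outside 100-1000 RFU were excluded. The fluorescence ratio sums target-cycle Cy3 intensity over buffer-cycle Cy3 intensity per cluster and averages it per switch-domain sequence.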
# 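Further: ATP exposure 15 min at 22 °C before imaging.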
row,Sequence,switch fluorescence ratio
1,TCGGTGAAAA,0.976
2,TGGATAAGCC,0.963
3,TCTCGCCTTG,0.96
4,CGATTGTG,0.957
5,ACCATATTGC,1.1
6,ATCTAACTAA,0.995
7,GGAGATTACC,1.01
8,ATCTGCAACC,3.28
9,GTCCATGGTG,0.996
10,TTCGAGTTAT,1
11,ATATGTACCC,1.07
12,TAGGGACTTT,1.02
13,AGCGGTGAAG,1.02
14,CTAGCACGGG,1.02
15,TAGTAGTCAT,0.998
16,GACGATGTGG,0.985
17,TAAGCGTGCA,1.02
18,ATAGGCGAGT,1.03
19,GTGCAAAGGT,0.997
20,AGGTGAGTTT,1.05
21,TTGGGCAAC,1.04
22,TAGGATCTCT,1.01
23,AGAGAATATC,1.02

row,Sequence,switch fluorescence ratio
1,AGAAAAATAG,0.955
2,CGCTAGACGG,1.22
3,CGATTCTAGT,0.969
4,TTTTACTAAT,1.01
5,ATGCTAGTGG,0.99
6,AGGGTACAC,1.02
7,TCTATGGGC,1.01
8,TCATTGTGTT,0.998
9,AGAGCGTGGG,1.06
10,TCGTACTAAG,1.01
11,GCTCTTGTGT,1
12,TCCGATCGGC,1.06
13,GGAGGAAAAA,0.999
14,CGATCGGCCG,0.98
15,AGCATGCAAT,1.07
16,GTTATTAGAA,0.942
17,GTGCACGTGC,1.04
18,CGATTACGTC,1.04
19,TATGGCAAAC,1.57
20,CTCAACAATA,3.55
21,TTCACTTGAC,1.09
22,CAGGGTTCAG,1
23,GGAAATGCTC,1.11

row,Sequence,switch fluorescence ratio
1,GCCGGGTCCT,1.02
2,CGGCGGGCTC,1.09
3,GATCCTGTTC,0.991
4,ATGTGAGACT,1.18
5,TTCAAATGC,1.01
6,GCTTTTAAGG,0.991
7,TCACCGAGGA,1.07
8,ATGAGTAGTG,0.937
9,ACACCTTATA,1.08
10,AATTCCCTGC,1.11
11,ATTACTGGAG,1.03
12,GCCAATGGCT,0.967
13,TGGCTGCAG,0.977
14,TGGACACCAG,0.986
15,ACTTACCGAT,1.15
16,TGGTCCGGAA,1.32
17,ACTCGTATTC,1.1
18,GGGCTAGTGC,1.05
19,GTGAGACA,1.01
20,CGAAACATTG,1.03
21,GGCGGGCAAC,1.01
22,AGGGAGTTTA,1.02
23,TATAAAGCCA,1.02

row,Sequence,switch fluorescence ratio
1,CGTAATGCGA,1.45
2,AACCCACGA,1.4
3,ATTGTAT,0.937
4,GAGTCTGTTG,0.998
5,GAGGTTACT,1.02
6,AGTTTAGCCG,1.08
7,TGTCATAATT,0.975
8,GCGATGAAAA,1.09
9,TAACGCAAAG,1.54
10,CGGTACTTCG,0.987
11,TATTGTTACC,1.01
12,ATAGAGTTAC,1
13,AATACGAAAT,1.1
14,GCCGGGTAAG,1.01
15,CCAATAAAT,0.961
16,ATACGGGAC,1.28
17,TTATACTGCA,1.03
18,TTATTGTGGG,1.03
19,TATTGTAGCC,1.17
20,GGCTCGTACA,1.01
21,AAGATCT,0.951
22,AAGAGTGTCC,1.02
23,GAAAGTTACT,1.02

row,Sequence,switch fluorescence ratio
1,ATAAGTGTGC,1.04
2,GAATCGCTCA,1.03
3,CCTCACCAGG,3.1
4,TTTACTT,1.03
5,TATCACTGAC,1.56
6,CCAGGTCACG,0.998
7,GGGGGCGAGC,1.12
8,TACGACTCTC,1.06
9,GGAGGGTTCC,1.03
10,GATGAAACTG,0.922
11,CATTTAATGC,1.73
12,TGAGGCCTTG,1.04
13,AGGCGGATCC,1
14,CGGATCCTTG,0.979
15,AGTGGCGAGT,0.988
16,ACGGCCCACA,1.21
17,TCACAGCCCA,1.05
18,TACGACTGTT,0.984
19,GTATACGTCC,1.05
20,GTGTTCTGCT,1.04
21,GCACCTGAAA,1.01
22,CCTAGTATTT,1.02
23,AGGGGCCAG,0.961

row,Sequence,switch fluorescence ratio
1,TCTGGGTGAG,1.02
2,TGAATATAAT,0.982
3,ATAGTTTTGA,1
4,CGGGATTTC,0.973
5,GGGGAGATAG,1.02
6,TTGAGCAAAA,1.06
7,CTCTCGTGTT,0.964
8,AACCGCTTGA,1.14
9,GAGCTGTACT,1.68
10,CAGCTGTCA,0.991
11,GCCTAATTTC,1
12,GAATCCAGGT,1.09
13,AATCCGGATT,0.993
14,GGCTGGTGGT,0.978
15,AAGAAGCCGA,0.995
16,AGCTGGCGGT,0.955
17,TTCATGGTAG,0.954
18,TCTCAGCATG,1.37
19,CCATAAATTT,0.982
20,GCGCTTGAGT,1.02
21,ATGATGAGCA,1.02
22,GGGCCTTAGG,1
23,GTGTGCGGCC,1.01

row,Sequence,switch fluorescence ratio
1,AGATGGTCTA,0.937
2,AGTCAGATCA,0.991
3,TTTCTTTGGC,0.974
4,TGGCTCCCCA,1.07
5,CCCCAACGCC,1.47
6,TAACTTTGGT,1.12
7,AGCCCCGCAG,1.73
8,GCCTCCAGTG,3.39
9,CAAGGGCTAC,1.05
10,GCGTGTGTAT,1
11,TGGCTCAGTT,1.02
12,GGCAGCTTAT,1.02
13,TAAATCGGAG,1.03
14,TGCTATTCCG,1.02
15,GGTTCCTTCT,1.06
16,ACAAATTTT,1.01
17,CTGGAGGTTA,1.03
18,TGATCACGCT,1.02
19,ATCGTAAAAT,1.03
20,TCCGGAATAA,4.11
